Measured values reported in the supplement of paper PMC12217912.
The other results are listed elsewhere or left out. Sequences were assembled here from the parent chain. Values near 0.05 are background.

B1: TEV protease; numbered along this chain (parent)
chain: MGESLFKGPRDYNPISSSICHLTNESDGHTTSLYGIGFGPFIITNKHLFRRNNGTLVVQSLHGVFKVKDTTTLQQHLVDGRDMIIIRMPKDFPPFPQKLKFREPQREERICLVTTNFQTKSMSSMVSDTSCTFPSGDGIFWKHWIQTKDGQCGSPLVSTRDGFIVGIHSASNFTNTNNYFTSVPKNFMELLTNQEAQQWVSGWRLNADSVLWGGHKVFMVKPEEPFQPVKEATQL

Variants of: B1
Experiment: raw area under fraction-flipped curve 0-4 h after induction (AUC4h, not background-subtracted), DNA-recorder readout of cleavage of the substrate (dimensionless); higher = more cleavage of the substrate by the protease variant
Conditions: temperature: 34 °C; time window: 0-4 h after rhamnose induction
Description: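 In vivo DNA recorder in E. coli TOP10(DE3) ΔrhaA at 34 °C. Each TEVp single-site mutant (parent TEVp 0) is paired with a single-site variant of the 7-mer TEVs (canonical ENLYFQ|S). The substrate sits between flexible linkers in a Bxb1-sfGFP-TEVs-SsrA fusion, so cleavage stabilises Bxb1 and speeds flipping of a recombination array, read by NGS. The value is the raw area under the fraction-flipped curve over 0-4 h after rhamnose induction (AUC4h), with ≥20 reads per time point. It is not background-subtracted; inactive controls average about 0.047.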
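Note: Bxb1 expression induced with 0.2% (w/v) L-rhamnose at OD600 near 0.5, cultures sampled hourly, flipped fraction per protease–substrate barcode pair counted by paired-end Illumina sequencing.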

Variant	area with substrate ENLYFAS	area with substrate ENLYFCS	area with substrate ENLYFES	area with substrate ENLYFFS	area with substrate ENLYFHS	area with substrate ENLYFIS	area with substrate ENLYFKS	area with substrate ENLYFMS	area with substrate ENLYFNS	area with substrate ENLYFPS	area with substrate ENLYFTS	area with substrate ENLYFVS	area with substrate ENLYFYS	area with substrate ENLYFRS	area with substrate ENLYFSS	area with substrate ENLYFWS	area with substrate ENLYFDS	area with substrate ENLYFLS	area with substrate ENLYFGS
MGESLFKGPRDYNPISSSICHLTNESDGHTTSLYGIGFGQFIITNKHLFRRNNGTLVVQSLHGVFKVKDTTTLQQHLVDGRDMIIIRMPKDFPPFPQKLKFREPQREERICLVTTNFQTKSMSSMVSDTSCTFPSGDGIFWKHWIQTKDGQCGSPLVSTRDGFIVGIHSASNFTNTNNYFTSVPKNFMELLTNQEAQQWVSGWRLNADSVLWGGHKVFMVKPEEPFQPVKEATQL [P40Q]	0.0558	0.0571	0.0688	0.0782	0.0659	0.068	0.0638	0.0624	0.0655	0.0682	0.0554	0.0406	0.0646						
MGESLFKGPRDYNPISSSICHLTNESDGHTTSLYGIAFGPFIITNKHLFRRNNGTLVVQSLHGVFKVKDTTTLQQHLVDGRDMIIIRMPKDFPPFPQKLKFREPQREERICLVTTNFQTKSMSSMVSDTSCTFPSGDGIFWKHWIQTKDGQCGSPLVSTRDGFIVGIHSASNFTNTNNYFTSVPKNFMELLTNQEAQQWVSGWRLNADSVLWGGHKVFMVKPEEPFQPVKEATQL [G37A]	0.0528	0.0596	0.0556	0.0677	0.0628	0.0531	0.0589	0.0607	0.0646	0.0474	0.0545	0.0573	0.0354	0.069	0.0577	0.0547			
MGESLFKGPRDYNPISSSICHLTNESDGHTTSLYGIFFGPFIITNKHLFRRNNGTLVVQSLHGVFKVKDTTTLQQHLVDGRDMIIIRMPKDFPPFPQKLKFREPQREERICLVTTNFQTKSMSSMVSDTSCTFPSGDGIFWKHWIQTKDGQCGSPLVSTRDGFIVGIHSASNFTNTNNYFTSVPKNFMELLTNQEAQQWVSGWRLNADSVLWGGHKVFMVKPEEPFQPVKEATQL [G37F]	0.0541	0.0502	0.0232	0.0539		0.0503	0.0495	0.0574	0.0403	0.0512	0.0386	0.0631	0.0436	0.0429	0.053	0.0549	0.0681	0.0498	
MGESLFKGPRDYNPISSSICHLTNESDGHTTSLYGISFGPFIITNKHLFRRNNGTLVVQSLHGVFKVKDTTTLQQHLVDGRDMIIIRMPKDFPPFPQKLKFREPQREERICLVTTNFQTKSMSSMVSDTSCTFPSGDGIFWKHWIQTKDGQCGSPLVSTRDGFIVGIHSASNFTNTNNYFTSVPKNFMELLTNQEAQQWVSGWRLNADSVLWGGHKVFMVKPEEPFQPVKEATQL [G37S]	0.0604	0.0522	0.0459		0.0567	0.054			0.0538	0.0525					0.0519	0.0577	0.0688		
MGESLFKGPRDYNPISSSICHLTNESDGHTTSLYGIGFLPFIITNKHLFRRNNGTLVVQSLHGVFKVKDTTTLQQHLVDGRDMIIIRMPKDFPPFPQKLKFREPQREERICLVTTNFQTKSMSSMVSDTSCTFPSGDGIFWKHWIQTKDGQCGSPLVSTRDGFIVGIHSASNFTNTNNYFTSVPKNFMELLTNQEAQQWVSGWRLNADSVLWGGHKVFMVKPEEPFQPVKEATQL [G39L]	0.0268		0.0291		0.0431	0.0438		0.0326	0.0349	0.0389	0.0458	0.0525	0.0386	0.0213			0.04	0.0165	0.0447
MGESLFKGPRDYNPISSSICHLTNESDGHTTSLYGIGFYPFIITNKHLFRRNNGTLVVQSLHGVFKVKDTTTLQQHLVDGRDMIIIRMPKDFPPFPQKLKFREPQREERICLVTTNFQTKSMSSMVSDTSCTFPSGDGIFWKHWIQTKDGQCGSPLVSTRDGFIVGIHSASNFTNTNNYFTSVPKNFMELLTNQEAQQWVSGWRLNADSVLWGGHKVFMVKPEEPFQPVKEATQL [G39Y]	0.0476	0.0345	0.0367	0.05	0.0448	0.047	0.0418	0.0329	0.0501	0.0728		0.043	0.0393		0.0519	0.0449			
MGESLFKGPRDYNPISSSICHLTNESDGHTTSLYGIGFFPFIITNKHLFRRNNGTLVVQSLHGVFKVKDTTTLQQHLVDGRDMIIIRMPKDFPPFPQKLKFREPQREERICLVTTNFQTKSMSSMVSDTSCTFPSGDGIFWKHWIQTKDGQCGSPLVSTRDGFIVGIHSASNFTNTNNYFTSVPKNFMELLTNQEAQQWVSGWRLNADSVLWGGHKVFMVKPEEPFQPVKEATQL [G39F]	0.0442	0.0385	0.0412	0.0477	0.0456	0.0415	0.0406	0.0408	0.0392	0.0397	0.0387	0.0318	0.0507	0.0382	0.0456	0.043	0.0415		
MGESLFKGPRDYNPISSSICHLTNESDGHTTSRYGIGFGPFIITNKHLFRRNNGTLVVQSLHGVFKVKDTTTLQQHLVDGRDMIIIRMPKDFPPFPQKLKFREPQREERICLVTTNFQTKSMSSMVSDTSCTFPSGDGIFWKHWIQTKDGQCGSPLVSTRDGFIVGIHSASNFTNTNNYFTSVPKNFMELLTNQEAQQWVSGWRLNADSVLWGGHKVFMVKPEEPFQPVKEATQL [L33R]	0.0593	0.0498		0.0662	0.0721	0.0572	0.062	0.0569	0.0605	0.0619	0.0632	0.0321			0.0667	0.0534			
MGESLFKGPRDYNPISSSICHLTNESDGHTTSYYGIGFGPFIITNKHLFRRNNGTLVVQSLHGVFKVKDTTTLQQHLVDGRDMIIIRMPKDFPPFPQKLKFREPQREERICLVTTNFQTKSMSSMVSDTSCTFPSGDGIFWKHWIQTKDGQCGSPLVSTRDGFIVGIHSASNFTNTNNYFTSVPKNFMELLTNQEAQQWVSGWRLNADSVLWGGHKVFMVKPEEPFQPVKEATQL [L33Y]	0.0591	0.0514	0.0698		0.075	0.0498	0.0515	0.056	0.064	0.0666	0.0427			0.0551	0.0605	0.0639			0.058
